Measured values as given in PubChem BioAssay AID624418 (National Center for Advancing Translational Sciences (NCATS), 2012).
Out of some 410,000 compounds screened, about 530 (0.13%) were called active. The shares of active, inactive and inconclusive entries below differ from those in the screen. Calls follow the shape of the dose curve; as a rule, active = well fitted inhibition curve with a large enough effect; inconclusive = small, poorly fitted or top-dose-only effect, or another doubt; inactive = no such curve, though single readings can be large or run the other way. Potencies of inconclusive entries are doubtful fits and often do not repeat.

Assay: qHTS of GLP-1 Receptor Inverse Agonists: Cytotox Screen
Details: HEK293 cAMP-luciferase reporter cells, luminescence, 24 h; activity change, negative = inhibition: at 38.3 µM (top of the series) unless noted
Outline: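 Quantitative HTS format, 1536 wells, 200 cells/uL seeded. Compounds: 23 nL, 24 h, 37 °C. Detection: luciferase reagent, luminescence at 12 min RT; decreased signal taken as cytotoxic.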
% is scaled to controls: 0 for no effect and ±100 for the full control effect; potency is read from the fitted curve at half-maximal effect.

Which “activity change, negative = inhibition” value does the source give for `Cc1ccccc1C(=O)N(C)c1ccccc1C(=O)NCc1ccccc1` here?
Its value is inactive: -3.32%.

For `CCOC(=O)N1CCc2c(sc3c2c(=O)n(-c2ccc(Cl)cc2)c(=O)n3CC(=O)Nc2ccccc2)C1`, which “activity change, negative = inhibition” value is on record?
Its value is inactive: -1.88%.

With `CCC(=O)Oc1cccc(C(=O)Nc2ccc(-c3nnc(-c4ccco4)o3)cc2)c1` as the compound, how does the Potency read?
Its Potency is inconclusive: 7.94 µM [inhibitor, partial curve].

With `O=S(=O)(c1ccc(Cl)cc1)c1cnc2ccccc2n1` as the compound, how does the Potency read?
The Potency was inconclusive: 28.2 µM [inhibitor, single point].

For `NS(=O)(=O)c1ccc(NC(=O)c2ccc(CNS(=O)(=O)c3cc(C(F)(F)F)ccc3Cl)cc2)cc1`, which “activity change, negative = inhibition” value is on record?
The value was inactive: 0.939%.

Which “activity change, negative = inhibition” value does the source give for `O=C(Nc1nnc(CC2=CCCCC2)s1)c1cccs1` here?
The value was inactive: -3.45%.

With `O=C(Cc1csc(NC(=O)Nc2cccc(Cl)c2)n1)NCc1ccccn1` as the compound, how does the Potency read?
The Potency was inconclusive: 6.31 µM [inhibitor, partial curve, poor fit].

With `O=S(=O)(CCOc1ccccc1)c1nc2ccccc2[nH]1` as the compound, how does the “activity change, negative = inhibition” value read?
Its value is inactive: -30.4%.

With `O=C(Nc1cc(Cl)cc(Cl)c1)C1CC(=O)N(C2CCCC2)C1` (centres undefined) as the compound, how does the “activity change, negative = inhibition” value read?
The value was inactive: -2.93%.

For `Cn1c(SCC(O)c2ccccc2)nnc1-c1ccc2ccccc2c1` (centres undefined), which Potency is on record?
Its Potency is inconclusive: 14.1 µM [inhibitor, single point].

For `Cc1ccc(C2NC(=O)c3ccccc3N2)s1` (centres undefined), which Potency is on record?
The Potency was inconclusive: 10 µM [inhibitor, single point].

With `O=C(OCC(=O)N1CCN(C(=O)c2ccco2)CC1)c1cc(-c2cccc(Br)c2)nc2ccccc12` as the compound, how does the Potency read?
The Potency was inconclusive: 11.2 µM [inhibitor, single point].

Which Potency does the source give for `O=C(O)CCn1cc(/C=C/C(=O)c2ccc(Cl)cc2)c(-c2ccc(Br)cc2)n1` here?
Its Potency is inconclusive: 28.2 µM [inhibitor, single point].

With `CC(C)c1ccc(/C=C/C(=O)NC(=S)NN2CCOCC2)cc1` as the compound, how does the Potency read?
Its Potency is inconclusive: 28.2 µM [inhibitor, single point].

With `COc1cc(CNn2cn[nH]c2=S)cc(Cl)c1OCc1ccc(F)cc1` as the compound, how does the “activity change, negative = inhibition” value read?
Its value is inactive: -12.6%.

Which “activity change, negative = inhibition” value does the source give for `Cc1ccc(-c2nc3ccc(Cl)cn3c2Nc2ccccc2C)s1` here?
The value was inactive: 0%.

For `Cc1sc2c(c1C)c(=O)n(-c1cccc(C(F)(F)F)c1)c(=O)n2Cc1ccc(F)cc1`, which “activity change, negative = inhibition” value is on record?
The value was inactive: 21.9%.

For `COc1ccc(C(=O)NC(=S)N(C)C2CCCCC2)cc1Br`, which Potency is on record?
Its Potency is inconclusive: 12.6 µM [inhibitor, partial curve, poor fit].

Which Potency does the source give for `CC(C)(C)c1cc(NC(=O)Nc2ccc(Br)cc2Cl)no1` here?
The Potency was inconclusive: 14.1 µM [inhibitor, partial curve, poor fit].

For `Cc1cc(/N=C/C=C2/N(C)c3ccccc3C2(C)C)n(CCC#N)n1`, which Potency is on record?
Its Potency is inconclusive: 20 µM [inhibitor, partial curve, poor fit].

For `COc1ccc(NC(=O)C2CCC2)cc1S(=O)(=O)Nc1cc(C)ccc1Br`, which Potency is on record?
The Potency was inconclusive: 28.2 µM [inhibitor, single point].

For `Cc1ccnc(NS(=O)(=O)c2cc(-c3cc(C)no3)ccc2C)c1`, which “activity change, negative = inhibition” value is on record?
The value was inactive: 2.98%.

With `CN1CCN(c2ccc(NC(=O)c3ccc(C#N)cc3F)cc2Cl)CC1` as the compound, how does the “activity change, negative = inhibition” value read?
The value was inactive: -16.7%.

For `O=C(NC(=S)Nc1ccc(Br)cc1)C1CCC1`, which Potency is on record?
The Potency was inconclusive: 31.6 µM [inhibitor, single point].

For `CCOCCn1ccc2c(OCC(=O)Nc3ccc(OC(F)(F)F)cc3)cccc2c1=O`, which “activity change, negative = inhibition” value is on record?
Its value is inactive: 2.62%.

Which Potency does the source give for `Cc1cccc(N2CCN(C(=O)c3c(Cl)cnn3C)CC2)c1C` here?
The Potency was inconclusive: 12.6 µM [inhibitor, single point].

With `Cc1nnn(C23CC4CC(CC(CC(=O)Nc5ccc(C)c(Cl)c5)(C4)C2)C3)n1` as the compound, how does the Potency read?
Its Potency is inconclusive: 28.2 µM [inhibitor, single point].

Which Potency does the source give for `O=S(=O)(c1ccc(Nc2ccc(-c3ccc4c(c3)OCCO4)nn2)cc1)N1CCCC1` here?
The Potency was inconclusive: 28.2 µM [inhibitor, single point].

For `CCOc1cc(CNCCO)cc(Br)c1OCc1ccccc1Cl`, which Potency is on record?
Its Potency is inconclusive: 28.2 µM [inhibitor, single point].

For `COc1ccc(C2CC(c3ccc(Br)cc3)=NN2C(=O)c2cccnc2)cc1` (centres undefined), which Potency is on record?
Its Potency is inconclusive: 12.6 µM [inhibitor, single point].

Which “activity change, negative = inhibition” value does the source give for `COc1ccc(OCCN(C)C(=O)c2cccc(S(=O)(=O)N(C)c3ccccc3)c2)cc1` here?
Its value is inactive: -19.9%.

Which Potency does the source give for `COc1ccccc1C(C)NC(=O)c1ccc(C)o1` (centres undefined) here?
Its Potency is inconclusive: 11.2 µM [inhibitor, single point].

For `CCCS(=O)(=O)N1CCCC(C(=O)NCCCOC)C1` (centres undefined), which “activity change, negative = inhibition” value is on record?
Its value is inactive: 0.669%.

With `CC(C)c1ccc(-c2cc(C(=O)N3N=C(C(F)F)CC3(O)C(F)F)c3ccccc3n2)cc1` (centres undefined) as the compound, how does the Potency read?
The Potency was inconclusive: 11.2 µM [inhibitor, single point].

With `CCc1nc2c(OCc3ccc(C(F)(F)F)cc3)cccn2c1N(C)C(=O)C1CC1` as the compound, how does the “activity change, negative = inhibition” value read?
Its value is inactive: -7.23%.

With `COc1ccc(C(=O)Nc2nnc(S(=O)(=O)N(C)c3ccc(Cl)cc3)s2)cc1OC` as the compound, how does the “activity change, negative = inhibition” value read?
Its value is inactive: -3.98%.

With `C#CCN1C(=O)C(O)(CC(=O)/C=C/C=C/c2ccccc2)c2ccccc21` (centres undefined) as the compound, how does the “activity change, negative = inhibition” value read?
The value was inactive: -23.5%.

With `CCCCN(C(=O)CSCc1c(C)noc1C)c1c(N)n(CCC)c(=O)[nH]c1=O` as the compound, how does the “activity change, negative = inhibition” value read?
The value was inactive: -0.127%.

For `Cc1ccc(C(C(=O)Nc2ccc3c(c2)OCO3)N(C)C(=O)Cc2c[nH]c3ccccc23)cc1` (centres undefined), which Potency is on record?
Its Potency is inconclusive: 25.1 µM [inhibitor, single point].

With `O=C(c1ccc(F)cc1)N1CCC(c2ccccc2)C1` (centres undefined) as the compound, how does the Potency read?
Its Potency is inconclusive: 25.1 µM [inhibitor, partial curve, poor fit].

Which “activity change, negative = inhibition” value does the source give for `Oc1ccccc1N=N/C(=N/Nc1ccccc1O)c1ccccc1` here?
Its value is inactive: -16.4%.

Which Potency does the source give for `COc1ccc(N=Nc2cc(OC)c(N)cc2OC)cc1` here?
The Potency was inconclusive: 10 µM [inhibitor, partial curve, poor fit].

Which Potency does the source give for `COc1ccc(CNC(=S)NC(C)CCc2ccccc2)cc1` (centres undefined) here?
The Potency was inconclusive: 31.6 µM [inhibitor, single point].

Which Potency does the source give for `O=C(COc1ccccc1)NS(=O)(=O)c1ccc(Cl)cc1` here?
Its Potency is inconclusive: 12.6 µM [inhibitor, single point].

For `Cc1oc(-c2ccccc2F)nc1CS(=O)(=O)CC(=O)NCCN(C)C1CCCCC1`, which Potency is on record?
The Potency was inconclusive: 28.2 µM [inhibitor, single point].

With `CC1=Nc2cc(C(=O)NC3CCCC3)ccc2Sc2ccc(C)cc21` as the compound, how does the Potency read?
Its Potency is inconclusive: 0.355 µM [inhibitor, full curve, poor fit].

Which Potency does the source give for `COc1ccccc1C(=O)NC(=O)CSc1nnc(N)s1` here?
The Potency was inconclusive: 0.501 µM [inhibitor, full curve, poor fit].

For `Cc1nn(-c2nc(-c3ccc(F)cc3)cc(C(F)(F)F)n2)c(C)c1Br`, which “activity change, negative = inhibition” value is on record?
Its value is inactive: 3.06%.

With `O=C(NC(=S)NCc1ccccc1)c1ccc(Br)cc1` as the compound, how does the Potency read?
The Potency was inconclusive: 20 µM [inhibitor, single point].

With `COc1ccc(OC)c(/C=N/NC(=O)c2cc3c(OC)cc(OC)cc3[nH]2)c1` as the compound, how does the Potency read?
Its Potency is inconclusive: 25.1 µM [inhibitor, single point].

Which “activity change, negative = inhibition” value does the source give for `CCOc1ccc(Oc2nc(NCC(C)C)nc(NC(C)(C)C)n2)nn1` here?
The value was inactive: -2.14%.

Which Potency does the source give for `COC(=O)c1ccc(NCc2c(O)ccc(O)c2Br)cc1Cl` here?
The Potency was inconclusive: 28.2 µM [inhibitor, single point].

With `COc1ccc(/C=C2\SC(=S)N(CCC(=O)NC3C=CS(=O)(=O)C3)C2=O)cc1` (centres undefined) as the compound, how does the Potency read?
The Potency was inconclusive: 0.501 µM [inhibitor, full curve, poor fit].

With `CC(c1ccccc1)N1C(=O)/C(=C/c2ccncc2)SC1=S` (centres undefined) as the compound, how does the Potency read?
Its Potency is inconclusive: 28.2 µM [inhibitor, single point].

Which Potency does the source give for `Cc1nc(Nc2nc(CSc3nc4ccccc4[nH]3)cc(=O)[nH]2)nc2ccccc12` here?
The Potency was inconclusive: 2.24 µM [inhibitor, full curve].

With `COc1ccccc1COC(=O)C(NC(=O)c1ccc(C)cc1)C(C)C` (centres undefined) as the compound, how does the “activity change, negative = inhibition” value read?
Its value is inactive: 1.16%.

Which Potency does the source give for `CC(C)CCNC(=O)Nc1ccc2c(c1)N(C)C(=O)c1ccccc1S2` here?
The Potency was inconclusive: 10 µM [inhibitor, single point].

Which Potency does the source give for `CCN1CCN(c2ccc(NC(=O)c3cc4ccccc4cc3OC)cc2C)CC1` here?
Its Potency is inconclusive: 14.1 µM [inhibitor, partial curve, poor fit].

For `Cn1ncc(Cl)c1C(=O)N1CCN(S(=O)(=O)c2ccc(F)cc2)CC1`, which Potency is on record?
Its Potency is inconclusive: 28.2 µM [inhibitor, partial curve, poor fit].

Which Potency does the source give for `CN1CCN(c2ccc(-c3cccc(NC(=O)COc4ccc(Cl)cc4)c3)nn2)CC1` here?
The Potency was inconclusive: 10 µM [inhibitor, partial curve].

Which “activity change, negative = inhibition” value does the source give for `O=C(Nc1ccc2oc(Cc3ccc(Cl)cc3)nc2c1)c1cccnc1` here?
The value was inactive: -9.26%.

Which Potency does the source give for `O=NNc1nc2ccccc2n1Cc1ccccc1` here?
Its Potency is inconclusive: 28.2 µM [inhibitor, single point].

With `COCc1nnc(NC(=O)c2ccc(S(=O)(=O)N3CCCc4ccccc43)cc2)o1` as the compound, how does the Potency read?
The Potency was inconclusive: 14.1 µM [inhibitor, single point].

Which Potency does the source give for `C[C@H]1C=C(C(=O)N2CCOCC2)O[C@@H](OCc2ccc(CO)cc2)C1` here?
Its Potency is inconclusive: 11.2 µM [inhibitor, single point].

With `COC(=O)C1Cc2c([nH]c3ccccc23)C2(CCN(Cc3ccccc3)CC2)N1` (centres undefined) as the compound, how does the Potency read?
Its Potency is inconclusive: 11.2 µM [inhibitor, single point].

With `C=CCn1c(SCC(=O)Nc2sccc2C(N)=O)nc2sc(C)c(C)c2c1=O` as the compound, how does the Potency read?
The Potency was inconclusive: 11.2 µM [inhibitor, partial curve].

With `Cn1cc(S(=O)(=O)c2ccc(Cl)cc2)c(=O)c2cc(F)c(N3CCCC3)cc21` as the compound, how does the “activity change, negative = inhibition” value read?
Its value is inactive: 0.13%.

For `O=C(/C=C1\NC2(CCCC2)Cc2ccccc21)C(=O)N/N=C/c1ccccc1O`, which Potency is on record?
Its Potency is inconclusive: 2.51 µM [inhibitor, full curve, poor fit].

Which “activity change, negative = inhibition” value does the source give for `NC(=O)C1(N2CCCCC2)CCN(Cc2ccc(Br)cc2)CC1` here?
The value was inactive: 3.95%.
